This note sets out measurements from the RNAGym collection of RNA variant scans (doi:10.7554/elife.90254).

The source gives no read counts; variants with many changes may rest on few reads.

The chains are these.
B1: LINE1-mini (parent)
chain: GGCAGAGCUCAACACAGCGUGGCAAAGUGGCUGUGGCUAGACUGCC

This data set covers variants of B1. Briefly: self-cleavage, relative activity (ratio to wild type); higher = more cleavage; in vitro, sequencing; the parent is a self-cleaving ribozyme.
As to A12U C18U U28C, the self-cleavage was found to be 0.03.
Regarding C13G A14U A41G, the self-cleavage worked out at 0.04.
Consider C13G U20A U34A, for which the self-cleavage is 0.03.
Take C13A G29C C31U G36C: the self-cleavage stood at 0.36.
To C13A A24G C42G belongs 0.07; to A12U G40U C45G, 0.17; to A12U A25U U28A G29A U32A, 0.
In the case of C13G C18G C31G G33U, the self-cleavage was 0.01.
The same measure for A12U C23U G33A: 0.1; for A12U A25U G27U C31A G40U U43C G44C: 0; for C13A C15A A41U: 0.11.
The same measure for C13G G33A G40C G44C: 0.06; for A12U G36U G44C: 0.04; for C13G A16G C23A A24C: 0.03.
To A12U G22U G29U belongs 0.43.
As for C13A A26C C31A U32C, the self-cleavage amounted to 0.15.
To C13A G33U G35C A39G C42U belongs 0.07; to C13A A16U C42U, 0.06.
The same measure for A12U G17C G21A: 0.18; for A12G U28A C46G: 0.05; for C13G C18U C31U: 0.08.
Regarding C13A G17A C18A C46A, the self-cleavage worked out at 0.05.
For C13A A25U G30U A41U, the self-cleavage stood at 0.08.
For C13G G30U C31G, the self-cleavage worked out at 0.06.
Regarding A12U U32G G35U C42G, the self-cleavage came out at 0.03.
Turning to A12U C15A A24G C46G, the self-cleavage was 0.01.
To C13G G22A C23U belongs 0.1; to C13A G22U C23U A25C U28C, 0.04.
For the variant C13A A16U U20C G29U, the self-cleavage amounted to 0.1.
As for C13A A16C G17C G36U, the self-cleavage was found to be 0.07.
The same measure for A12U U20C A24C G29C G30U: 0.02.
Turning to C13G A16G C37U U38G C45A, the self-cleavage came to 0.
In the case of C13G A14G G19A G22A A26G A39G, the self-cleavage is 0.07.
To C13G A24C A41U G44C belongs 0.2; to C13G U20A G30C A41U G44A, 0.04.
To A12G G33A A41C belongs 0.04; to A12G G30A C37U G40C, 0.02; to C13A A25G G27U G29A, 0.18.
Regarding C13G G19A C31A G36A U43A, the self-cleavage was determined as 0.03.
To C13A G21C U43A belongs 0.06; to A12G G35U U38A, 0.02; to C13G C23A U34C, 0.03.
The same measure for C13A C37U U43G C45G: 0.1; for C13A G17A U38C: 0.02; for C13G C31G A39G: 0.04.
As for C13G G40C C45A, the self-cleavage stood at 0.06.
The same measure for C13A A14G A16U C42U: 0.03; for C13G A14C U38G: 0.03.
Take A12U C23G A24C G44C: the self-cleavage came out at 0.08.
With C13A U34G C37U A39C C46G, the self-cleavage was 0.02.
The same measure for C13A G27C U28G G36A: 0.06.
Consider A12G G27U G36A A39C, for which the self-cleavage is 0.02.
To A12U G17C G27U G40C belongs 0.03; to A12G C37G G44U C45G, 0.01; to C13A C18G G27C C46G, 0.14.
As to C13G G19A G35A U43G G44C, the self-cleavage came out at 0.04.
On to C13G G22A A25U C45U, for which the self-cleavage is 0.31.
To C13G A14U G17C belongs 0.02.
The same measure for C13A G21A A39G G44U: 0.06; for C13A C15G A24C G27C: 0.04.
Turning to C13A G29A C45A, the self-cleavage was 0.1.
As to C13A C15G U43G G44A, the self-cleavage came out at 0.02.
The same measure for C13A C15A G22U: 0.56; for C13A U34C A41G: 0.08.
The same measure for A12U C15U U32G C42A: 0.02; for A12U C18U U20C: 0.03.
For C13A G22C G36U U38A, the self-cleavage was 0.02.
As for C13A U20C G21A, the self-cleavage is 0.05.
With C13A G21U G40A, the self-cleavage is 0.03.
The same measure for A12U A25G G36A C37A: 0.03; for A12U C15A G29U: 0.03.
With C13G A26C U28A G33U, the self-cleavage was determined as 0.08.
As to A12U A14C G27U C31A U43A, the self-cleavage is 0.03.
To C13A G21A C31U G36C belongs 0.03; to A12U G17A U43A, 0.04; to C13A G30A C42A, 0.13.
To C13A C18A A25U belongs 0.03; to A12U C13G U34G G44A, 0.01.
As to C13A G22A C46G, the self-cleavage is 0.13.
To C13G G17C G27C U34G belongs 0; to C13A A16U G21A G35U U43A G44C, 0.05.
To C13G A16G G19U belongs 0.01.
Take A12U G17C U34G: the self-cleavage was found to be 0.02.
To C13A G17C A25C G40A belongs 0.03; to C13A G21U G27U, 0.09.
To C13A A25U U28C belongs 0.14; to C13A A26C C45A, 0.18; to C13G A24U G33A, 0.04.
Take C13G A24U G33U: the self-cleavage turned out to be 0.01.
Consider C13G A14U G33U G35A, for which the self-cleavage stood at 0.01.
The same measure for A12U C18G U20G U34C: 0.02; for A12G U32C G36U U38C A39G: 1.72.
To C13A G27C U34A A39U belongs 0.02.
Take A12U C37A U43G C46A: the self-cleavage is 0.07.
To A12U G21U C37A belongs 0.01; to C13A G29U G30C, 0.21.
Consider C13A C18A U28C G44A, for which the self-cleavage is 0.05.
A12U C18U U20C A26G: the self-cleavage is 0.04.
To A12G G21A A26U belongs 0.02; to C13A G19U C23G C37U C42U, 0.01.
The same measure for A12G G19A C46G: 0.03.
To A12U G22A C42G belongs 0.02; to A12U C31U A39U, 0.04; to C13G A26G G36A G40A, 0.12.
With A12G G19A G21A G27U U43A C46G, the self-cleavage turned out to be 0.01.
To A12G G17A G30A C42U C45G belongs 0.02; to C13G C31U C37U A39C, 0.03.
For the variant C13A G33A G35U, the self-cleavage is 0.01.
Turning to C13G G19U G22A G29A G40C C42A, the self-cleavage came to 0.07.
The same measure for C13A U20G G35U: 0.45; for C13A C23A G33A G40U: 0.1; for C13G A14U C37G C45G C46G: 0.05.
With C13A G36C C45A, the self-cleavage was 0.01.
To C13G G21A G33C belongs 0.04.
To A12U G36A C37A belongs 0.02; to C13A G33C G36A, 0.03; to C13A G21U A26C, 0.2.
To C13A C31U G40U belongs 0.3; to A12U A24U C37U A41C, 0.
Regarding C13G C18A C23A C46G, the self-cleavage worked out at 0.03.
The same measure for C13A G19C G27C U34G: 0.03; for C13A C15U A16C G17C U20C: 0.11; for C13G A14C C18A: 0.15.
To C13A G27A C31U A39G belongs 0.08.
To A12U U20C G35U belongs 0.05; to C13A A14C G17C, 0.01; to C13A U20G U38C, 0.06.
As for C13A A14G U28C A41U, the self-cleavage was 0.13.
For the variant C13A A25G A41U, the self-cleavage amounted to 0.03.
The same measure for A12G G17U C31U G33A: 0.04; for A12G G17A G44C: 0.02; for C13A C18U G19U G40C: 0.01.
Turning to A12G G30A G36A, the self-cleavage was 0.03.
As to C13G G19C G30A, the self-cleavage was 0.02.
As for C13G G21U G29A, the self-cleavage was found to be 0.35.
The same measure for A12G G30U C46A: 0.04.
Turning to A12U G21A A25U G29A A39C, the self-cleavage stood at 0.12.
Consider A12U G27U G35U G36C, for which the self-cleavage stood at 0.04.
For A12G G17U G30C C46G, the self-cleavage was found to be 0.
As to A12G G40U C46A, the self-cleavage came out at 0.15.
To A12U C13A A14G belongs 0.11; to A12U G29A C42U, 0.04.
For C13A C23A U43A, the self-cleavage was determined as 0.05.
For A12U C18U G40A C45U, the self-cleavage was 0.15.
The same measure for C13A G17A C31U G35C: 0.03; for C13G G19C G29C: 0.05; for A12G G21A A24U G40U: 0.02.
Take C13G A16U A41C: the self-cleavage worked out at 0.02.
To A12U U38C U43A belongs 0.01; to C13A C15A G21A G36C, 0.04.
On to C13A G30A C31G C42G, for which the self-cleavage stood at 0.04.
On to A12G U20A U28G G30C, for which the self-cleavage turned out to be 0.02.
Take A12G G36U G44A: the self-cleavage turned out to be 0.02.
To A12U G33A U38G belongs 0.01.
With C13A G19C U38C, the self-cleavage is 0.01.
The same measure for C13A A24G U32A C42U: 0.15; for C13G G19C G21A G30U: 0.03.
To A12U C13A C15A C31A G33U C42G belongs 0.03; to C13G G21C C31U U38A, 0.02; to A12U G30A A39C, 0.01.
With C13G G30U C31U G35U U43C, the self-cleavage was 0.02.
Take C13A G22U G33U: the self-cleavage was 0.08.
The same measure for C13A G30A C31U G35C: 0.03.
For C13G A24C C31G, the self-cleavage turned out to be 0.02.
Turning to A12U A25C G30U C42A C45A, the self-cleavage is 0.02.
The same measure for A12G G27C G35C: 0.02; for A12U G30U G33C: 0.01.
